# Some of the results follow. Further columns of the screen follow, without active or inactive calls. The list favours compounds with an active or inconclusive main result. Words in brackets tell the shape of the fitted curve; partial curves, single points and poor fits give uncertain potencies.
# Experiment: Natriuretic polypeptide receptor (hNpr1) antagonism - Confirmation; further: nearly all actives have a fitted effect of over 70% in size
# Conditions: HEK293 hNpr1 cGMP GloSensor luminescence, ANP-stimulated; measured here: HEK-hNpr1 cytotoxicity, CellTiter-Glo
# Description: In order to identify small molecular compounds that inhibit the hNpr1 receptor we developed a high-throughput assay to measure inhibition of the guanylate cyclase activity of the receptor. cGMP production was measured using a circular permutated Firefly luciferase (FLuc) enzyme functionally linked to the cGMP binding domain of human phosphodiesterase 5 (GloSensor technology pGS-40F, (Fan, F. et al. 2008). The cGMP-sensor was expressed in human embryonic kidney 293 (HEK-293) cells and FLuc activity was measured after stimulation with hNrp agonist peptide. hNrp agonists activates the receptor's associated guanylyl cyclase (GC) domain producing cGMP which then binds to the GloSensor resulting in FLuc activation, the enzymatic activity of which can be measured as bioluminescence with addition of luciferin substrate. A cytotoxicity counter-screen using the HEK-hNpr1-cGMP-sensor cells was also performed on the follow-up compounds. F. Fan, B. F. Binkowski, B. L. Butler, P. F. Stecha, M. K. Lewis, K. V. Wood, Novel genetically encoded biosensors using firefly luciferase. ACS Chem Biol 3, 346-351 (2008).
# PROTOCOL TABLES (as described by Inglese J, Shamu CE and Guy RK. 2007) SEQUENCE No. (e.g., 1, 2, 3, etc.); PARAMETER (e.g., Cells, Incubation, Reagent, etc.); VALUE and DESCRIPTION. GLOSENSOR PROTOCOL 1. Cells. Seed 1500 HEK293 cGMP-sensor cells expressing hNpr1 per well in 4uL into Greiner 1536-well white/solid bottom high base, tissue culture-treated plates. 2. Incubation. Incubate plated cells at 37C in 5% CO2, 95% RH overnight. 3. Reagent. Add 1uL per well GloSensor reagent from Promega (2% final concentration) or CO2 independent media vehicle control to respective columns of Greiner 1536-well plates. 4. Incubation. Incubate plated cells at room temperature for 2 h, protect from light. 5. Compounds. Library compounds and A-71915 control added at 23 nL per well, transferred by Pin Tool. 6. Incubation. Incubate plated cells for 30 min. at room temperature, protect from light. 7. Detector. GloSensor baseline pre-read luminescence measured using CCD-based camera (Viewlux). 8. Compound. Add 1uL of hNppA peptide to 0.1 nM final concentration to stimulate hNpr1 or CO2 independent media as vehicle control. 9. Incubation. Incubate treated cells at room temperature for 20 min., protect from light. 10. Detector. GloSensor post-hNppA luminescence measured using CCD-based camera (Viewlux). NOTES (numbers refer to Sequence numbers above) 1. HEK293 cells expressing hNpr1 and GIP/pGS-40F grown to 85-95% confluence (48-72 h) in T175 culture flasks (CO2 independent media supplemented with 10% FBS, 1% Pen/Strep antibiotics and 1 ug/mL puromycin). Trypsinize and harvest cells from T175 culture flasks and filter through 40 um cell strainer. Cells counted with Invitrogen Countess (30,000,000 - 50,000,000 cells/flask). Cells diluted to a final concentration of 375 cells/uL in CO2 independent media and a Millipore multidrop used to dispense 1500 cells per well (4uL/well) into 13 1536-well Greiner White/Solid bottom, high base tissue-culture treated (TC) plates and one Aurora 1536-well Black/Clear bottom, low base, TC plate (for visual inspection of cell health throughout the duration of the assay). 2. Cells incubated overnight at ambient temperature, 24 h. at 37C in 95% RH incubator protected from light, covered with metal lid with gas-exchange holes. 3. Prepare GloSensor Reagent (Promega): Reconstitute GloSensor luciferase substrate by adding 8.2mL Hepes buffer to 250mg substrate, mix well, protect from light and stored at -80C. Prepare a fresh 12% GloSensor solution in CO2 independent supplemented plating media (see above). Mix well and store at ambient temperature, protected from light. 1uL 12% GloSensor Luciferase Reagent added (2% final concentration) to respective columns of 13 x 1536-well Greiner plate with BioRaptr, 1uL CO2 independent plating media added to respective columns as vehicle control with BioRaptr. 4. […]
# Tags describe the fitted curve by direction and shape.
row,Structure (SMILES),CC50
1,O=c1ccc(N2CCC(NS(=O)(=O)c3ccccc3Cl)CC2)nn1CC1CC1,"21.7 µM [falling, partial curve]"
2,CSCc1nc(CNc2nc(C3CCCC3)nc3c2cnn3C)cs1,"17.2 µM [falling, partial curve]"
3,CN(C)C(=O)N1C2CCC1CN(c1ccc(C(F)(F)F)cc1)C2,"21.5 µM [falling, partial curve]"
4,Cc1nc(N2CCC(C(=O)NCc3cccc(Cl)c3)CC2)cc(C(F)(F)F)n1,"21.7 µM [falling, partial curve]"
5,CCn1c2c(c(=O)n1Cc1ccccc1)CCN(C(=O)c1ccc(Oc3ccccc3)cc1)C2,"21.7 µM [falling, partial curve]"
6,O=C(Nc1ccc(Oc2ccccc2)cc1)O[C@@H]1CO[C@H]2[C@@H]1OC[C@@H]2NS(=O)(=O)c1ccc2ccccc2c1,"19.3 µM [falling, partial curve]"
7,COc1ccc(NC(=O)Cn2c(N(C)Cc3ccccc3)nc(C)cc2=O)cc1OC,"8.62 µM [falling, full curve]"
8,COc1cc(N2CCC(CO)(Cc3ccccc3C(F)(F)F)CC2)ncn1,"17.2 µM [falling, partial curve]"
9,COc1cccc(N2CCN(c3nc(C(=O)NCc4ccncc4)cs3)CC2)c1,"21.7 µM [falling, partial curve]"
10,Cc1cc(=O)n(CC(=O)Nc2cccc(C(F)(F)F)c2)c(N2CCC(C)CC2)n1,"13.7 µM [falling, partial curve]"
11,COc1ccc(N2CCN(C(=O)Nc3nc(C)ns3)CC2(C)C)cc1,"6.11 µM [falling, full curve]"
12,O=C(Nc1ccc(Cl)cc1)c1nc2c(o1)CCN(Cc1ccncc1)CC2,"3.96 µM [falling, full curve]"
13,Cc1cccc(C(=O)N2CCC3(CC2)CC(N(Cc2ccc(F)cc2)C2CC2)CCO3)c1 (centres undefined),"21.7 µM [falling, partial curve]"
14,O=C(c1ccncc1)N1CC2CCC(C1)N2Cc1ccc(-c2ccccc2)cc1,"6.85 µM [falling, partial curve]"
15,N#Cc1ccc(CN2CCc3nc(C(=O)Nc4cccc(C(F)(F)F)c4)oc3CC2)cc1,"15.3 µM [falling, partial curve]"
16,O=c1n(-c2ccncc2)nc2n1CCN(Cc1ccc(C(F)(F)F)cc1)C2,"15.3 µM [falling, partial curve]"
17,COc1ccc(NC(=O)c2ccc3c(c2)N(S(=O)(=O)c2ccccc2)CC3)cc1,"21.7 µM [falling, partial curve]"
18,CCCc1nc(NCc2nc(Cc3cccs3)no2)c2cnn(C)c2n1,"24.3 µM [falling, partial curve]"
19,O=C(CCC1CCCC1)N1CCC(c2noc(COc3ccc(F)cc3)n2)C1 (centres undefined),"24.3 µM [falling, partial curve]"
20,O=C(c1cc(F)ccc1Cl)N1CCN(c2cc(-c3ccc(F)cc3)[nH]n2)CC1,"24.3 µM [falling, partial curve]"

row,Structure (SMILES),CC50
1,N#Cc1cccc(CN2CCOC[C@H]2c2ncc(-c3ccc(Cl)s3)[nH]2)c1,"35.3 µM [falling, partial curve]"
2,COc1ccc(CN(C)C(=O)c2ccc3oc(C)cc3c2)c2cccnc12,"12.2 µM [falling, partial curve]"
3,COc1ccc(C(=O)Nc2ccc(-c3noc([C@@H]4CCCN4Cc4ccc(F)cc4)n3)cn2)cc1,"12.2 µM [falling, partial curve]"
4,Cc1ncnc(N2CCC(CO)(Cc3ccccc3C(F)(F)F)CC2)c1C,"21.7 µM [falling, partial curve]"
5,O=C(CCCc1ccccc1)N1CCC2(CC1)CC(Cc1nc(-c3cccnc3)no1)CCO2 (centres undefined),"21.7 µM [falling, partial curve]"
6,O=C(Nc1ccc(F)cc1)c1ccc2c(c1)OCCN(c1ccccc1)C2,"49.8 µM [falling, single point]"
7,Cc1cc2c(N3CCC(NCc4noc(C5CCC5)n4)CC3)ncnc2s1,"3.43 µM [falling, full curve]"
8,Cc1ccccc1-c1cnc2[nH]cc(CC(=O)Nc3cccnc3)c2c1,"31.4 µM [falling, partial curve]"
9,CC1=C(C(=O)OC(C)C)C(c2ccc(C)cc2)CC(=O)N1Cc1cccc(C#N)c1 (centres undefined),"21.7 µM [falling, partial curve]"
10,Cc1cc(F)ccc1NC(=O)c1cc2n(n1)CC(c1ccc(Cl)cc1)OC2 (centres undefined),"34.3 µM [falling, single point]"
11,O=C(N[C@H]1CO[C@H]2[C@@H]1OC[C@@H]2n1nnnc1Oc1ccc(-n2ccnc2)cc1)c1ccc(C(F)(F)F)cc1,"21.7 µM [falling, partial curve]"
12,Cc1c[nH]c(CN2CCCC(CCc3ccc(F)cc3F)C2)c(C)c1=O (centres undefined),"3.85 µM [falling, partial curve]"
13,O=C1N(Cc2ccc(F)cc2)C[C@H]2CN(Cc3ccc(C(F)(F)F)cc3)CCN12,"22.2 µM [falling, partial curve]"
14,COc1ccc(C(=O)N2CCC3(CC2)CC(=O)Nc2ccccc2O3)cc1,"19.3 µM [falling, partial curve]"
15,CC1=NS(=O)(=O)N(C)C=C1C(=O)OCc1nc(-c2ccccc2)oc1C,"15.3 µM [falling, partial curve]"
16,O=C(c1cc(F)ccc1Cl)N1CCC(Cc2nc(-c3ccc(F)cc3)no2)CC1,"12.2 µM [falling, partial curve]"
17,CC(=O)N1CCc2cc(S(=O)(=O)NCCCC(=O)N3CCC(CCOc4ccccc4)C3)ccc21 (centres undefined),"9.68 µM [falling, partial curve]"
18,Cc1ccc(C(=O)N2CCN(c3cc(-c4ccc(Cl)cc4)[nH]n3)CC2)cc1F,"19.3 µM [falling, partial curve]"
19,Cn1ccc(NC(=O)[C@@H]2C[C@@H](c3ccc(F)cc3)N(Cc3ccccc3)C2)n1,"35.3 µM [falling, partial curve, poor fit]"

# Source: PubChem BioAssay AID1347044 (National Center for Advancing Translational Sciences (NCATS), 2019)
